Results published in article PMC12136788.
This is one part of the list.

T1: UNK ZnF1-3 (human, UniProt Q9C0B0 31-174)
T1 sequence: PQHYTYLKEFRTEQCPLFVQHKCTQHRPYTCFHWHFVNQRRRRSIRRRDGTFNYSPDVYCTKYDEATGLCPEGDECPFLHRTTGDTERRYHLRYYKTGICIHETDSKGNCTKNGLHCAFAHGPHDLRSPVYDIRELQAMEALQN

B1: chr11:46405157:46405158:+_ENSG00000110492_ENST00000395566|hu_hu|hu_hu_hu_mus_False|28_78 (ssRNA)
RNA: GGGAGUUCUACAGUCCGACGAUCCCCUCCCCACUUUGGGCACUUGGUGUGGGCGUGAAGGCAGGGCCGUGAUUGACAGAGCUGACAGGAAGACAAAAGGCACUGGUGGGUCACAUCUUGGGCCUGUGGGAGAGGAGGGCUCCGCAACAGAGGAUUGAGCAUCA
B2: chr13:42874254:42874255:+_ENSG00000023516_ENST00000025301|hu_mus|FALSE|FALSE (ssRNA)
RNA: GGGAGUUCUACAGUCCGACGAUCUUCACUAGUAUCUGUUUGGCAAAACCAUUCAGCAGGAGUACAGCUUCCAGGAGGACUAAAAGCUGAGGUUCGAAUAGGGCUGAACAAGCCACUAUCCUCUGAUGUCAUCACCGGACGAGGCAACAGAGGAUUGAGCAUCA
B3: chr22:19452774:19452775:-_ENSG00000070010_ENST00000399523|hu_hu|hu_hu_hu_mus_False|1_18 (ssRNA)
RNA: GGGAGUUCUACAGUCCGACGAUCCUUCUCAUUGUAGUUGAUAGCAAUCACAUCUCCAGUCGUCAGACAGGCGAAGUUUCUCAAUGCAUUUUCUAAUACCGCUUUAGGGUUGGUAAUGUCCAGGAAGUCUGGGCUCUGAGGUUGCAACAGAGGAUUGAGCAUCA
B4: 43428950_43429070_1961_CDS_ENSG00000052841_ENST00000039989|human|control|control (ssRNA)
RNA: GGGAGUUCUACAGUCCGACGAUCGCCGUAAUGAAUCAAAAGGUUGGCCAAGUUGACAAGAGGAACAUCUUGGUAUUGAAGUGGAGCUAAAUUCAAAGCCCUCUGAAGACAGGCAAUAGCAAAAGUGCUAUUUCCUACUGCUCUCAACAGAGGAUUGAGCAUCA
B5: chr19:8913615:8913616:-_ENSMUSG00000071658_ENSMUST00000096259|mus_hu|mus_mus_mus_hu_False|38_38 (ssRNA)
RNA: GGGAGUUCUACAGUCCGACGAUCAGGGUACCAAAACCUUCUGCCUGAAAUGGGUGCCCCACCCAGUAGGGAGUUGCAGCUGAAAGUAUCUGAUGCACUGACAGUUACUAUACGAAAGGAGGCCCCUGGGGAGGGCCAGGCCAGCAACAGAGGAUUGAGCAUCA
B6: chr19:5492702:5492703:+_ENSMUSG00000056201_ENSMUST00000116560|mus_mus|FALSE|FALSE (ssRNA)
RNA: GGGAGUUCUACAGUCCGACGAUCAUAGGUUGCAUCAUAGAGUGCAUAGCGGCAGUCCUUGUCUGGCAGCAUCUUGACAAAAGUGGUGUAGGGGUCGUCCACAGUCUGCCCCACAUCUCCUACCAGGAUCUCCUUGCCCUCCUCCAACAGAGGAUUGAGCAUCA
B7: 91077349_91077469_131_5pUTR_ENSMUSG00000035232_ENSMUST00000045748|mouse|control|control (ssRNA)
RNA: GGGAGUUCUACAGUCCGACGAUCACCGCCGCCUAGCCGCGAGGAGGAGGCGGCGCCGGCGGGGCUUUACCUCUACCUGGGGCUCGGCCUUGGCGCCAGCAGCUGCUCGCCUGCCGCGACACCUACACAAGUACCGGGCAGCAGCAACAGAGGAUUGAGCAUCA
B8: chr10:60895279:60895280:-_ENSMUSG00000020091_ENSMUST00000020288|mus_mus|motif|central (ssRNA)
RNA: GGGAGUUCUACAGUCCGACGAUCACUGGAAGAUGUUUUGUUAAAAAAGUUGUAGUUCAAAAUUGUACUGAAAACUUAUCGGAAAAUAGGUCUGUAGUCAUCUUAAAAAUAAAAGGUCUCUCCUCUGAUAAGGAGAGACUGAUACAACAGAGGAUUGAGCAUCA
B9: 32615364_32616838_524_CDS_ENSMUSG00000022797_ENSMUST00000023486|mouse|control|control (ssRNA)
RNA: GGGAGUUCUACAGUCCGACGAUCCUGCUUGAUGGUGUCAGCAAACUCUAUGGAGUUCAACUUCUCUGACAACAGUGUUUUGAGGUCUGCCCAAUAUAAGCGAGAUGAUGUAGGAACAUCCUCUGUUUCCAUGGUUUCUGACUUCAACAGAGGAUUGAGCAUCA
B10: chrX:71549762:71549763:+_ENSMUSG00000019087_ENSMUST00000019231|mus_mus|mus_mus_mus_hu_False|68_88 (ssRNA)
RNA: GGGAGUUCUACAGUCCGACGAUCAAACCCGUGUACUUCUUAUUGUUACAUCACCCCCACCAGAAAAAAAACAUAACAGCCAAGCAGGACAGACAGUUAAGUAGUACUUCCACACUCCCAAACUCAGGGAGCCCUAUAACCUUACAACAGAGGAUUGAGCAUCA
B11: chr19:56882518:56882519:-_ENSMUSG00000035173_ENSMUST00000118592|mus_hu|FALSE|FALSE (ssRNA)
RNA: GGGAGUUCUACAGUCCGACGAUCCUGAGAAAGCUGCUUAAUUUUGUUAGUGUUUUUCUCAAGUUCCUUAUUUGCAUCUCUAAGUUUUUUCUCAAGUGUCUCUUUUUCCUUUCGAAGAUCUAAAGAUUCCUUCUCACCUCUUACCAACAGAGGAUUGAGCAUCA
B12: chr1:60041781:60041782:+_ENSMUSG00000041040_ENSMUST00000036540|mus_hu|mus_mus_mus_hu_False|28_58 (ssRNA)
RNA: GGGAGUUCUACAGUCCGACGAUCAAGUUUACAAUAGUAAAGUAAAUGCAGUAGUGGCAAAUUUUCUUUUAUUUUCCUUCCUAAAAGAAAAUCUUUAUAACCCAGUCCAAUCCCAGAACAUAGUGAAAGCUAUAAAUUCUGACUCAACAGAGGAUUGAGCAUCA
B13: chr5:151611259:151611260:+_ENSMUSG00000034021_ENSMUST00000016569|mus_hu|FALSE|FALSE (ssRNA)
RNA: GGGAGUUCUACAGUCCGACGAUCCAUUUUCUGAACAUAACGUUCAAGAGGAAAUAUCUAUACACAAUAACAUUCUAGACUAUUAAAAACUCAUUCAAAUUACAGAAUUUUAUUGAUACAGUAGAUUAAUAAAAACUGAAAGGACAACAGAGGAUUGAGCAUCA
B14: chr11:85347198:85347199:+_ENSG00000171204_ENST00000358867|hu_mus|FALSE|FALSE (ssRNA)
RNA: GGGAGUUCUACAGUCCGACGAUCCCUUGCACGUGGUUUUUCACAUAUAUUGUAAUGAUGUAAGCCAGUAAAAGCUCCCAUUACUAUCUGAAAGAACAGAGGAAUAGCCAUUGCUUUCAUCCCAGUUUGACAAAGGAGCAACCACAACAGAGGAUUGAGCAUCA
B15: chr11:86516163:86516164:-_ENSMUSG00000047126_ENSMUST00000103186|mus_mus|FALSE|FALSE (ssRNA)
RNA: GGGAGUUCUACAGUCCGACGAUCAAGGCUGUCUUUCUUGCACAACUCUACACUCUGUUUCCAGCGAUUGUUGCCUUUGAAGAGAUAAGCAGCAAUUCUUCUGAAUUCAAUGAGUUCGUGUUUUUCCAAACGCUGAGCAAGUGACAACAGAGGAUUGAGCAUCA
B16: chr17:20919178:20919179:-_ENSG00000124422_ENST00000537526|hu_hu|motif|central (ssRNA)
RNA: GGGAGUUCUACAGUCCGACGAUCGAGCACGUCCAGGGCCGCGAUGAGGAACUCGUGGGCGUCCUGCUGCUCGUAGCCUGCGGGGUGCCUCGCGUGGGUCCACACCAGGUGCAGCAACUUAUACGGGAUGUGAGGGGACCGGUGCAACAGAGGAUUGAGCAUCA
B17: chr7:44244176:44244177:+_ENSG00000106636_ENST00000223369|hu_mus|hu_hu_hu_mus_False|48_78 (ssRNA)
RNA: GGGAGUUCUACAGUCCGACGAUCACUGUCGCUCCGGACGUAGACAUGGCAAAGAUAGUCUUGUUCUUUGACAGAAGCUCUGCUGCCUUUCGAUGAGCGUUCCACAAUCAGUUGACUUGUAAAGGUCAUGAAUUCCUGCACACUCAACAGAGGAUUGAGCAUCA
B18: chr6:41757443:41757444:+_ENSG00000214736_ENST00000398881|hu_mus|hu_hu_hu_mus_False|68_88 (ssRNA)
RNA: GGGAGUUCUACAGUCCGACGAUCGAACCGUGCAGAGGCAACAUCUCGGAAUUCUGCGGGGGAUGGGGGAACAAAAGGGGGGGGUUCAGGCAAGGAGAGGGAGUCAACUUCAGCUGCCACUCAGGUAGGAUCUUGUGGUCACAGCAACAGAGGAUUGAGCAUCA
B19: chr4:83347727:83347728:-_ENSG00000152795_ENST00000602300|hu_mus|FALSE|FALSE (ssRNA)
RNA: GGGAGUUCUACAGUCCGACGAUCCCAGUAUAAUCAUAGCCGCCAUAGCCACUAUAGUUCUGAUCACCACCAUAGGCACUAUUAUAAUUUCCAUAUCCUUGAUCAUAAUAGUUAUUAAAUCCUUGGUUCCAGUUUUGGCCCUGACAACAGAGGAUUGAGCAUCA
B20: chr11:77340908:77340909:-_ENSG00000074201_ENST00000525064|hu_hu|hu_hu_hu_mus_True|8_48 (ssRNA)
RNA: GGGAGUUCUACAGUCCGACGAUCGUUUGGAUCCCUGGACACCGCAUGUAAACUAAUGGUGGGGUAUUCCAGUGAGAAUCCUAAUCCAGAGCCAUCUAACCAGGACAGGCGGCUCUCCGCGAUGUAAAGGGUACCAGUGCCGAGCAACAGAGGAUUGAGCAUCA
B21: chr10:98431539:98431540:+_ENSMUSG00000019943_ENSMUST00000020107|mus_mus|motif|central (ssRNA)
RNA: GGGAGUUCUACAGUCCGACGAUCCGUAAUUCCAAAGUCUCCAUCAUGGUUAGCUUCUUUCAAAGAGUUCUUCACACCGCGGUACGCAACUGAGUUGUUGGCCAUGUCGCCCAUCACAAGGAUAAUUUAUUAGGAGGAAAAUGUCAACAGAGGAUUGAGCAUCA
B22: chr17:64630434:64630435:-_ENSMUSG00000024083_ENSMUST00000172818|mus_mus|FALSE|FALSE (ssRNA)
RNA: GGGAGUUCUACAGUCCGACGAUCCCUGUUUAUUGUUUAUGAUUUACACGGAAAAUGCCAGGCUGGGAUUGUAGACCAAUAAACCAAUCAUCACAGUUAGACCUGGGCUUUUGAAAACCUUGCAUUCCGUUUUAACAGUUCAUACAACAGAGGAUUGAGCAUCA

Each binder was assayed against T1, UNK ZnF1-3 (assay: nsRBNS (natural sequence RNA bind-n-seq); RBNS binding buffer (assumed for nsRBNS): 25 mM Tris pH 7.5, 150 mM KCl, 3 mM MgCl2, 0.01% Triton X-100, 500 ug/ml BSA, 20 U/ml SUPERase-In, 4 C; UNK is unkempt and MSI1 is Musashi-1; names of the RNAs are library labels; protein concentration not given here; high values mean tight binding).

Row | Binder | binding signal [enrichment R]
1 | B1 | 1.75
2 | B2 | 1.26
3 | B3 | 0.763
4 | B4 | 1.12
5 | B5 | 1.04
6 | B6 | 1.59
7 | B7 | 0.439
8 | B8 | 0.797
9 | B9 | 0.522
10 | B10 | 2.15
11 | B11 | 0.419
12 | B12 | 0.59
13 | B13 | 0.724
14 | B14 | 2.02
15 | B15 | 0.59
16 | B16 | 0.947
17 | B17 | 0.663
18 | B18 | 2.93
19 | B19 | 1.04
20 | B20 | 1.19
21 | B21 | 1.5
22 | B22 | 1.46
